T1: UNK ZnF1-3 (human, UniProt Q9C0B0 31-174)
T1 sequence: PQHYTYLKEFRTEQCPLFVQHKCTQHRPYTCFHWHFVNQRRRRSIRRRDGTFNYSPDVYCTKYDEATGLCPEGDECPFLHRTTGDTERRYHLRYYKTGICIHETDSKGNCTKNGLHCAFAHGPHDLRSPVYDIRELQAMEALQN

B1: chr1:63113421:63113422:-_ENSG00000116641_ENST00000251157|hu_mus|FALSE|FALSE (ssRNA)
RNA: GGGAGUUCUACAGUCCGACGAUCUAAACAUUUCACAAGAAGUCUUUGUCCGAAAUGCUCUUUGGGCACAUCAGGAACACUGAGCCUUUCGAUUGGUUCUUCCUCAUCUGGUGAUGGAUGCAAAGCAAACAGUUCCUUGUGGCGCAACAGAGGAUUGAGCAUCA
B2: chr10:126492284:126492285:-_ENSMUSG00000040502_ENSMUST00000040307|mus_hu|motif|central (ssRNA)
RNA: GGGAGUUCUACAGUCCGACGAUCAAAGUGCCCAGGCUUCAGGCUGACCCACAUUGUAAACAGUCCUUCCCAAAUCUUUUCUCGGUAAACAACAGUCCUCUAUGCUGCUGCCUCCAAACAUAAUGCCAUCCAUUAAUACCACUGCAACAGAGGAUUGAGCAUCA
B3: chr4:115894766:115894767:+_ENSMUSG00000028698_ENSMUST00000030464|mus_hu|mus_mus_mus_hu_True|18_38 (ssRNA)
RNA: GGGAGUUCUACAGUCCGACGAUCUUCCACACGGAAAUGUACUUCGGGUUUUCCAACGGCCAGUACCAGUCCGGCCAAACUACCCGAACAGGGUCCUGUCCUCCUCUCCUACAGAACUAAAGCACCCGCCCCCGAACUUUCAAGCAACAGAGGAUUGAGCAUCA
B4: chr3:100366718:100366719:-_ENSMUSG00000008763_ENSMUST00000008907|mus_mus|motif|central (ssRNA)
RNA: GGGAGUUCUACAGUCCGACGAUCGACAAACAUCACAGGAAGCUUACUGCCCAUCAGGCUUGGCACACCACAACAUAGAUGCGGGCAAGAUGAUACCACAGACUUGUACCUUUCGUGAGUCCUGCAGUUGCUGAUUGACUGUUACAACAGAGGAUUGAGCAUCA
B5: chr2:209110096:209110097:-_ENSG00000138413_ENST00000345146|hu_mus|FALSE|FALSE (ssRNA)
RNA: GGGAGUUCUACAGUCCGACGAUCUUCUUCAAAGUCAUGUACCAUGUAUGUCACCUUCUGAGUUCCAUCUUUUGGUGUGUAGGUUAUCUCUACUUUUCCAGGCCCAGGAACAACAAAAUCAGUUGCUCUGUAUUGGUCCCCAUACAACAGAGGAUUGAGCAUCA
B6: chr9:109937893:109937894:+_ENSMUSG00000032479_ENSMUST00000165876|mus_mus|FALSE|FALSE (ssRNA)
RNA: GGGAGUUCUACAGUCCGACGAUCUUCACGUGGUUUUUCUUCAGUCUGUACAGUUCCUUUGUCUUUAAUUGGAACUGUUGCUACUUUUGUUUCCAAGGGCAGUGCAAGAUCGGAGGCUGGAGCCAUGCUGUUGUCCACAAUCAGCAACAGAGGAUUGAGCAUCA
B7: 120771656_120772108_1059_3pUTR_ENSMUSG00000027272_ENSMUST00000028728|mouse|control|control (ssRNA)
RNA: GGGAGUUCUACAGUCCGACGAUCAAAAUAUCUGUCUAAAGUCACUUGAAUAGCUCAUAAUUUUGUUCAUCCAGGAGCCAAGGCGCAGAGCGAAUUUCUGGUGAGCCAUAACCACGGAGUGCAGCACUUCCACAUGGAGGGGGUCAACAGAGGAUUGAGCAUCA
B8: 21629917_21630847_1285_CDS_ENSG00000004700_ENST00000444129|human|control|control (ssRNA)
RNA: GGGAGUUCUACAGUCCGACGAUCCUGCCGAACCUCAUAAUAUAGAUUUGGCCUAUUAAAAGAAGCUGUAAAAGUAAAACACUUUUCAAUGCACAAAAUUUUCUGAGCAUCCGUCAAAACGUGAUUUGUUGCAGUUGCAGUCAGCAACAGAGGAUUGAGCAUCA
B9: chrX:153670519:153670520:+_ENSG00000203879_ENST00000447750|hu_mus|FALSE|FALSE (ssRNA)
RNA: GGGAGUUCUACAGUCCGACGAUCUGCAGGCUCAACUUCCUUUUCUGGUUCUGCAGUCUCUACAGUGGUGCUGGCAAUGGCGAUGUAUUUGCCCUGUGCGGCCACGUUGUGCGCAUAGGAGAUCAUGCACACAUAGAUGUCUGACAACAGAGGAUUGAGCAUCA
B10: chr3:9412954:9412955:+_ENSG00000134077_ENST00000452837|hu_mus|hu_hu_hu_mus_False|1_38 (ssRNA)
RNA: GGGAGUUCUACAGUCCGACGAUCGGUUGAUAUCUCUUCUUUGAUGGCUGGAUUUUCAUAAUAGUCCAAGAUAUGUGAAUCUGAAGUGCUGCUGGCAAACUCUUUUUUACCAUCUUUCUCAUCUGCUUUGUCUCCUUGUCCAUUCAACAGAGGAUUGAGCAUCA
B11: 49421636_49421834_14532_CDS_ENSG00000167548_ENST00000301067|human|control|control (ssRNA)
RNA: GGGAGUUCUACAGUCCGACGAUCCAACACUGCAUCAAACUGCUUCAGCCAAUCAGGGCCAGUGUCUGGGCUCUUGCCUUCCAGACCCUUUUCCUUCCCACCAGGACCCUCAGCUUCCCCCUUCUUUGGCUCAGUGCCUGCCCGCAACAGAGGAUUGAGCAUCA
B12: chr6:160200208:160200209:-_ENSG00000120438_ENST00000420894|hu_mus|motif|central (ssRNA)
RNA: GGGAGUUCUACAGUCCGACGAUCAAUCCGAAGGAUGGUGAUUGCAGCCUCUGUUGCGAACUUCAGGCUCUUCACUUUAACGGUGGUUGGUUCAAACACCCCUGCUUGCUUGUUGUCUCGUGGUUUCCCAUGGACCAAAUCAAGCAACAGAGGAUUGAGCAUCA
B13: chr2:202488911:202488912:-_ENSG00000155755_ENST00000286196|hu_mus|hu_hu_hu_mus_False|18_58 (ssRNA)
RNA: GGGAGUUCUACAGUCCGACGAUCAUUGAAACAUUUUUCAUAAUCUCCAGUAGCAUUUCAGCAUUAUGUAACAAAAGAUCUAUUACAAAUACAUGUAUCUUAUAAAAAUACACUUAAAUUUAAAAACGGGGAGCGCAGGCGCCACAACAGAGGAUUGAGCAUCA
B14: 44444931_44445051_2242_3pUTR_ENSMUSG00000032097_ENSMUST00000170489|mouse|control|control (ssRNA)
RNA: GGGAGUUCUACAGUCCGACGAUCGUGUGUAAAGAUGAUAUUCUUAAUGGUCUUGUAGCAUAAGGCACUUCGCACAAAUAAGUAAUAAGCUCUUCAGGCUUAAAAACGGAUGAAUAAUCAGGGAGAAGUUGAAAUGCAGUAGAGCAACAGAGGAUUGAGCAUCA

This is an account of results in paper PMC12136788.

Some of the results follow.

This assay addresses T1, UNK ZnF1-3. Nature of the assay: nsRBNS (natural sequence RNA bind-n-seq); RBNS binding buffer (assumed for nsRBNS): 25 mM Tris pH 7.5, 150 mM KCl, 3 mM MgCl2, 0.01% Triton X-100, 500 ug/ml BSA, 20 U/ml SUPERase-In, 4 C; UNK is unkempt and MSI1 is Musashi-1; names of the RNAs are library labels; protein concentration not given here; high values mean tight binding.
In turn, B1 came in with a binding signal of 0.87 enrichment R.

Molecule B2 had a binding signal of 1.38 enrichment R.

As for B3, the binding signal is 0.991 enrichment R.

The molecule B4 had a binding signal of 1.58 enrichment R.

The molecule B5 yielded a binding signal of 0.645 enrichment R.

Regarding B6, the binding signal was determined as 0.508 enrichment R.

The molecule B7 came in with a binding signal of 1.46 enrichment R.

The molecule B8 had a binding signal of 0.801 enrichment R.

As for B9, the binding signal amounted to 0.648 enrichment R.

Molecule B10 showed a binding signal of 0.463 enrichment R.

B11 registered a binding signal of 1.09 enrichment R.

The molecule B12 had a binding signal of 0.515 enrichment R.

As to B13, the binding signal worked out at 2.95 enrichment R.

Molecule B14 came in with a binding signal of 1.31 enrichment R.
